# Laboratory results reported in publication PMC4336329 (PLoS ONE, 2015).
# About 14,000 (4.5%) of roughly 310,000 compounds showed an effect of 50% or more. Effects have a minus sign here. This is one part of the list.
# Target: human ether-à-go-go-related gene (hERG) potassium channel (human, UniProt Q12809)
# Assay: primary screen, population patch clamp on CHO cells stably expressing hERG
# 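Note: peak tail current of the secondary pulse compared with the same well before compound.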
# Sequence of human ether-à-go-go-related gene (hERG) potassium channel (Q12809 whole entry, looked up): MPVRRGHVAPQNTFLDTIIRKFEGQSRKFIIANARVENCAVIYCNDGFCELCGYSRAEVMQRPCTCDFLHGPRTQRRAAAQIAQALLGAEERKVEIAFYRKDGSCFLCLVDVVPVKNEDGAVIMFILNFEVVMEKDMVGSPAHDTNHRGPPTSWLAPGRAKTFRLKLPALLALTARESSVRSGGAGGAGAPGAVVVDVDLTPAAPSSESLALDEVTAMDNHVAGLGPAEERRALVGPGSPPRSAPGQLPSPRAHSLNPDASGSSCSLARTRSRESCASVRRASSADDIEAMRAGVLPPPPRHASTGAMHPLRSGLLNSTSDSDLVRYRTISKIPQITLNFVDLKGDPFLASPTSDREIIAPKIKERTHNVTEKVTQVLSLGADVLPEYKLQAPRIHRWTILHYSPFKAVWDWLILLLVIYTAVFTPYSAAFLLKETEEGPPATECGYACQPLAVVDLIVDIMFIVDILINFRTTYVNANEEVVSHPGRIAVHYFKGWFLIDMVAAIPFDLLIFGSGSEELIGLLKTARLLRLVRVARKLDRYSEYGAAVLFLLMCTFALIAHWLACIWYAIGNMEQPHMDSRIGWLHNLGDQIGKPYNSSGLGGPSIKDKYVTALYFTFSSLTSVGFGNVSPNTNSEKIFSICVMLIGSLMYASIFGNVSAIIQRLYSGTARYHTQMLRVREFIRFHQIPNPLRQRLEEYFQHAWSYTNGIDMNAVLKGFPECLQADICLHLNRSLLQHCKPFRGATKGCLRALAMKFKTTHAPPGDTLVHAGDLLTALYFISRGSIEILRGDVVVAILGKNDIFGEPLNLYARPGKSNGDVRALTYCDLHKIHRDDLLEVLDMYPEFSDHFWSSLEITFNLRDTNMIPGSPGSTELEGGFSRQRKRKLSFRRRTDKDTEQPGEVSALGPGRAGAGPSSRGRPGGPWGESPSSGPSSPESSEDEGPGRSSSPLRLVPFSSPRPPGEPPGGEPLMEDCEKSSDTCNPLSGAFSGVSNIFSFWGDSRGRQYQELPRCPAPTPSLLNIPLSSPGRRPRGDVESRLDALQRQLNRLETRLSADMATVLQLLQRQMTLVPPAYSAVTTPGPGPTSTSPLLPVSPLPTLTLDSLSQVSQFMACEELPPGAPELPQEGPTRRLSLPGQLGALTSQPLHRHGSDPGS
row,SMILES,"hERG current change (%, negative = inhibition) at 10uM"
1,CC(=O)Nc1ccc(OCC(O)Cn2ccnc2C)cc1 (centres unmarked),14.4%
2,CC(C)(C)Nc1nc(Cl)nc(NCc2ccccc2)n1,-5.31%
3,CN(CCC1CCOCC1)C(=O)CC1C(=O)NCCN1Cc1c(F)cccc1Cl (centres unmarked),9.8%
4,CC1(C(=O)O)Cc2ccccc2C(=O)O1 (centres unmarked),8.09%
5,O=C1CSC(c2cccnc2)N1c1ccc(Cl)cc1 (centres unmarked),1.64%
6,O=C(c1sc2ccccc2c1Cl)N1CCN(c2ccc(F)cc2)CC1,-3.54%
7,COC(=O)/C=c1/s/c(=C(/C#N)C(=O)N2CCCCC2)n(-c2ccccc2)c1=O,-3.94%
8,O=C(COc1ccc(S(=O)(=O)N2CCOCC2)cc1)Nc1cccc([N+](=O)[O-])c1,-39%
9,COC(=O)c1ccc(OC(=O)c2ccccn2)cc1,4.85%
10,COc1ccc(C(=O)NC(=S)Nc2ccccc2[N+](=O)[O-])cc1OC,19.5%
11,COc1ccc(/C=C/C(=O)OCC(=O)Nc2ccc(N3CCOCC3)cc2)cc1,59.2%
12,O=C(CSc1ccc(-c2ccccn2)nn1)c1ccccc1,1.55%
13,O=C(NC1CCCCC1)c1cc(-c2ccccn2)nc2ccccc12,21.7%
14,COCCN(CC(=O)NCc1ccccc1)C(=O)CCC(=O)Nc1nccs1,6.81%
15,O=C1CN(C(=O)C2CC2)c2ccccc2N1,-15.8%
16,OCC[C@H]1C[C@@H](O)[C@H](O)[C@]2(CCCO2)O1,2.25%
17,O=C(Cc1csc(Nc2nc(=S)[nH]c3ccccc23)n1)N1CCN(c2cccc(C(F)(F)F)c2)CC1,5.5%
18,Cn1c(SCc2ccccc2Br)nc2ccccc2c1=O,14.6%
19,Cl.OCCNCc1cc(Br)ccc1OCc1ccc(Cl)cc1,-66.6%
20,O=c1oc2ccc(Cl)cc2nc1/C=C(\O)c1cccs1,9.16%
21,Cc1ccccc1NC(=O)NCc1cccnc1,18.1%
22,O=S(=O)(NCC1CCCO1)c1cc(Cl)ccc1Cl (centres unmarked),4.69%

row,SMILES,"hERG current change (%, negative = inhibition) at 10uM"
1,Cc1nn(-c2ccccc2)c(Cl)c1C(=O)Nc1c(C)n(C)n(-c2ccccc2)c1=O,6.38%
2,O=C1CC(c2ccc(Cl)cc2)n2nc(NS(=O)(=O)c3ccc(F)cc3)nc2N1 (centres unmarked),1.76%
3,CN(C)S(=O)(=O)c1cc(NC(=O)c2cc(=O)c3ccccc3o2)ccc1Cl,1.08%
4,O=C1c2ccccc2NC(c2ccc(-c3ccc(F)cc3)o2)N1O (centres unmarked),-2.86%
5,Cl.NS(=O)(=O)c1ccc(CCNCC#Cc2ccccc2)cc1,-21.6%
6,COc1ccccc1C(=O)N(Cc1nc(-c2ccc(Cl)cc2)no1)C(C)C,-19.3%
7,CCCN1C(=O)c2cc(C(=O)NCCc3cccc(C)c3)ccc2C1O (centres unmarked),0.0443%
8,O=C(NC1C(=O)NNC1c1ccc(Cl)cc1)c1ccc(F)cc1 (centres unmarked),-4.18%
9,Cc1cc(C(=O)NCc2ccccc2Cl)n(-c2ccccc2)n1,-3.77%
10,Nc1nc(Cl)nc2ncn(Cc3ccccc3)c12,21.7%
11,CCOc1c(O)ccc(C2NC(=O)N(C)C(C)=C2C(=O)OC)c1[N+](=O)[O-] (centres unmarked),-0.872%
12,CCCCN(C(=O)Nc1ccc(Cl)cc1)C1CCN(C(C)=O)CC1,-46%
13,CSc1cccc(NC(=O)/C=C/c2ccccc2)c1,-7.06%
14,C[C@H](NC(=O)c1nc[nH]c1C(=O)N[C@@H](C)C(=O)OC(C)(C)C)C(=O)OC(C)(C)C,-2.56%
15,COc1ccc(NC(=O)C2=CN3CCS(=O)(=O)N=C3C=C2)c(OC)c1,12.9%
16,O=C(COC(=O)CCc1nc2ccccc2s1)Nc1ccc(Cl)cn1,0.449%
17,NC(=O)OCCCc1ccccc1,8.8%
18,Cc1ccc(/C=N\NC(=O)CNC(=O)C23CC4CC(CC(C4)C2)C3)o1,-4.95%
19,CN(C(=O)c1ccc(F)cc1)c1ccccc1C(=O)NCc1ccccc1,7.47%
20,O=C(/C=C/c1ccc(-c2ccccc2[N+](=O)[O-])o1)c1ccc(Br)cc1,-3.4%
21,CCOc1ccc(S(=O)(=O)Nc2cccc(C(=O)NCC3(N4CCCCC4)CCCCC3)c2)cc1,-71.6%
22,COCCn1c(NCc2ccc(C)cc2)nc2c1c(=O)[nH]c(=O)n2C,3.68%

row,SMILES,"hERG current change (%, negative = inhibition) at 10uM"
1,O=C(OCC(=O)N1CCCC1=O)c1ccc(O)cc1O,7.98%
2,O=C(/C=C/c1ccc([N+](=O)[O-])cc1)NCc1cccs1,-4.69%
3,CSc1ccc(CCNS(=O)(=O)c2c(C)[nH]c(C)c2C(=O)N2CCCCC2)cc1,-15.2%
4,c1ccc(C(c2ccccn2)c2ccccn2)cc1,-2.42%
5,Cc1cc(N2CCN(c3ccc(C(F)(F)F)cc3[N+](=O)[O-])CC2)c2ccccc2n1,-88.9%
6,O=C(COC(=O)c1cc([N+](=O)[O-])ccc1NCc1ccccc1)NCc1ccccc1Cl,10.1%
7,COc1cccc(N2CC(=O)N(NC(=O)c3sc4nc(C)cc(C)c4c3N)CC2=O)c1,10.9%
8,COc1ccc(OC)c(N=C(C)C2=C(O)COC2=O)c1,-5.35%
9,NC(=O)c1ccccc1OCC(=O)NS(=O)(=O)c1ccccc1,13.3%
10,COc1ccc(S(=O)(=O)N2CCN(C(=O)CN3C(=O)NC(C)(C)C3=O)CC2)cc1,4.49%
11,CCOC(=O)N1CCC(NC(=O)c2cc(C(=O)Nc3cccc(OC)c3)ccc2CO)CC1,14.4%
12,CC(C)(C)NC(=S)NCc1ccc2c(c1)OCO2,-9.09%
13,O=C(CCNS(=O)(=O)c1cccc2nsnc12)NCc1ccco1,-25.6%
14,Nc1nonc1-n1nnc(C(=O)N/N=C/c2ccc(O)cc2)c1COc1ccc(F)cc1,22.4%
15,O=C(COc1ccc2c(c1)oc(=O)c1ccccc12)NC(Cc1ccc(Cl)cc1)C(=O)O (centres unmarked),6.24%
16,COC(=O)Nc1ccc(S(=O)(=O)N2CCCC(C(=O)N3CCN(C)CC3)C2)cc1 (centres unmarked),32.8%
17,Cc1ccc(O)c(NC(=O)c2noc(C(C)C)c2[N+](=O)[O-])c1,13.3%
18,COc1ccccc1C(=O)C1CCCN(Cc2cn[nH]c2C2CCCCC2)C1 (centres unmarked),-31.5%
19,COC(=O)Cc1[nH]n(-c2ccccc2)c(=O)c1C=Nc1ccc(C)cc1,-23.9%
20,NNC(=O)c1ccc(COc2ccccc2)cc1,5.95%
21,COc1ccc(C(=O)N[C@H](C(=O)OCc2nc3ccsc3c(=O)[nH]2)C(C)C)cc1,-29.3%
22,COc1ccc(Cc2c([O-])[nH]c(=O)[nH]c2=O)c(OC)c1.[NH4+],0.536%

row,SMILES,"hERG current change (%, negative = inhibition) at 10uM"
1,O=C(N/N=C\c1ccc(CNS(=O)(=O)c2ccc(Cl)cc2)o1)C(=O)Nc1ccc(Oc2ccccc2)cc1,4.53%
2,C=C(C)Cn1c(N(CCO)Cc2ccccc2)nc2c1c(=O)[nH]c(=O)n2C,-2.53%
3,O=C(Nc1ccc(Br)cn1)C1CCN(S(=O)(=O)c2cccs2)CC1,-15.4%
4,Cc1ccccc1NC(=O)Cc1nc(COC(=O)CSc2ccccc2)cs1,-7.77%
5,CC/C(=N\NC(=O)COc1ccc(Br)cc1)c1ccc(OC)c(OC)c1,15.7%
6,CC(C)c1cccc(C(C)C)c1NC(=O)CN(C)C1CCS(=O)(=O)C1 (centres unmarked),-30.8%
7,Nc1ccc(-c2ccc(N)cc2C(F)(F)F)c(C(F)(F)F)c1,-7.82%
8,COc1ccc(-c2cc(C(F)(F)F)n3ncc(C(=O)NCc4ccco4)c3n2)cc1,-7.53%
9,Nc1ccc(S(=O)(=O)c2ccc(N)c(N)c2)cc1,17.5%
10,Cc1nn(C)cc1C(C(=O)NC1CCCCC1)N(C(=O)Cn1nnc2ccccc21)c1ccc(F)cc1 (centres unmarked),-1.32%
11,CCOC(=O)c1cccc(NC2c3ccccc3C(=O)N2Cc2ccco2)c1 (centres unmarked),-10.9%
12,O=c1c2ccccc2n(Cc2cccc(F)c2)c(=O)n1C1CCCC1,3.19%
13,Cc1cccc(N(CC(=O)NC2CCCC2)C(=O)CS(=O)CC(=O)Nc2ccc3c(c2)OCO3)c1C (centres unmarked),18%
14,COc1cc(C(=O)NC(=S)N2C[C@H]3C[C@H](C2)c2cccc(=O)n2C3)cc(OC)c1OC,4.45%
15,CCC(NC(=O)CN1CCN(C(=O)c2cccs2)CC1)c1ccc(C)cc1 (centres unmarked),-37.2%
16,OC(COCC1CC=CCC1)Cn1cnc2ccccc21 (centres unmarked),-10.4%
17,Cc1cc(NCc2ccccn2)n2ncc(-c3ccc(Cl)cc3)c2n1,5.16%
18,CCOc1ccc(C(=O)N[C@H](C(=O)Nc2cccc(S(=O)(=O)N3CCCCC3)c2)C(C)C)cc1,0.656%
19,Cl.c1ccc(C(OCCN2CCNCC2)c2ccccc2)cc1,-11.9%
20,O=C(O)CN1CCN(CC(=O)O)CCN(CC(=O)O)CCN(CC(=O)O)CC1,7.18%
